Reference: PubChem BioAssay AID1240 (Sanford-Burnham Center for Chemical Genomics, 2008)
In all, about 50,000 compounds went through this assay and about 800 (1.6%) showed an effect of 50% or more. The list shows a part of the results.

target: Bcl-2-like protein 10 (Homo sapiens) (UniProt Q9HD36); experiment: Phenotype converters, Bcl-B/TR3 peptide binding displacement, primary biochemical FP (AID 1240); settings: GST-Bcl-B / FITC-TR3 peptide fluorescence polarization; stronger effect = higher value; compound at 3.75 mg/L;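 further: 0% = Bcl-B with tracer peptide and DMSO and 100% = tracer peptide lacking Bcl-B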
UniProt Q9HD36, sequence (Q9HD36 whole entry, looked up): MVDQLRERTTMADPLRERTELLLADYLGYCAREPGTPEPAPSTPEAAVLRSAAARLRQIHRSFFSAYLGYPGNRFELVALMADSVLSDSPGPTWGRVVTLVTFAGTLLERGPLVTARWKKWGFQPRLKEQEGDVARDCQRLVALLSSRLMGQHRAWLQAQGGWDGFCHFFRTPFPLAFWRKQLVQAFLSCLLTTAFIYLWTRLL

| Compound | displacement [%] |
| --- | --- |
| CCCN/N=C/c1c(C)[nH]n(-c2ccccc2)c1=O | -10.5 |
| CCc1ccc(-c2cc(C(=O)N3CCN(c4ccc(F)cc4)CC3)c3ccccc3n2)cc1 | -7.6 |
| CC1CCN(CCOCCOc2ccc(Br)cc2)CC1 | 4.2 |
| CCCc1ccc(C(=O)O/N=C(\N)c2ccccn2)cc1 | 11.6 |
| Cc1no[n+]([O-])c1COc1cccc(/C=C2\N=C(c3ccccc3)OC2=O)c1 | 13.2 |
| COc1cc(N/N=C/c2cc(Br)ccc2O)ncn1 | -14.2 |
| C/C(=N\N=C1\NC(=O)C(CC(=O)Nc2ccccc2)S1)c1ccc([N+](=O)[O-])cc1 (configuration not stated) | 12.8 |
| CCCC(C)NC(=O)Cc1ccccc1[N+](=O)[O-] (configuration not stated) | 11.9 |
| COC(=O)c1cc(-c2ccc(Br)cc2)nc2ccccc12 | 0 |
| O=[N+]([O-])c1cccc2c1NC(c1ccccc1F)C1CC=CC21 (configuration not stated) | 45.6 |
| Cc1ccc(COc2ccc3c(c2)oc(=O)c2ccccc23)cc1 | 8.3 |
| O=C1CCCN1Cc1ncnn1-c1ccccc1 | 10.5 |
| CCCN1C(=O)C2(c3ccccc31)N1CC3(C)CN2CC(C)(C1)C3=O (configuration not stated) | -6.2 |
| COc1cccc(NC(=O)C(=O)N/N=C/c2ccc3c(c2)OCO3)c1 | 6.5 |
| CCOc1ccc(/C=C(/C#N)c2nc(-c3ccc(Br)cc3)cs2)c(OCC)c1 | 38.9 |
| COc1cc(NC(=O)c2oc3ccc(Cl)cc3c2C)ccc1NC(=O)c1ccco1 | -1.9 |
| COc1ccc(CCNC(=O)/C=C/c2ccc([N+](=O)[O-])cc2)cc1 | -7.2 |
| Cn1cccc1CN1CCN(C(=O)c2ccc([N+](=O)[O-])cc2)CC1 | -4.6 |
| Clc1ccc(-n2ncnc2-c2cccc(Br)c2)cc1 | -7.3 |
| O=C(CNc1cccc(Cl)c1)c1ccc([N+](=O)[O-])cc1 | 11.4 |
| O=C1CC(c2ccccc2)CC(O)=C1C=NCCN1CCNCC1 (configuration not stated) | -27.5 |
| CCOC(=O)c1c(NC(=O)c2cccc(Cl)c2)sc(C(=O)Nc2ccccc2OCC)c1C | 9 |
| CC1=C(C(=O)OCc2ccccc2)C(c2ccccc2Cl)C2=C(CCCC2=O)N1 (configuration not stated) | 6 |
| CC(C)(C)C(=O)Nc1ccc(NC(=O)C(C)(C)C)c(Cl)c1 | -1.7 |

| Compound | displacement [%] |
| --- | --- |
| CC1(C)Cc2c(sc(NC(=S)NC(=O)c3ccccc3)c2C(=O)O)CO1 | -11.6 |
| Cc1ccc(C(=O)NCCCn2ccnc2)o1 | -2.5 |
| CCOc1c(Br)cc(Br)cc1/C=C1\SC(=S)NC1=O | 7.7 |
| CN(C)c1cccc(NC(=O)c2ccc(C(C)(C)C)cc2)c1 | -2.3 |
| O=[N+]([O-])c1ccccc1OCC(O)Cn1cnc2ccccc21 (configuration not stated) | 2.8 |
| O=C1NC(=O)C(=Cc2cc(Br)ccc2OCc2ccccc2F)C(=O)N1 | 11.7 |
| CCOC(=O)C1=C(O)/C(=C/c2ccccc2)SC1=Nc1ccccc1 | 0.7 |
| O=C(NCCNc1ccccc1[N+](=O)[O-])c1ccccc1F | -3.6 |
| C=C1c2cc(OC)ccc2NC(=O)N1c1ccccc1 | 0.4 |
| CN(C)c1ccc(/C=C2/C(=O)NC(=O)N(CCCO)C2=O)cc1 | -5.2 |
| Cc1cc(I)ccc1S(=O)(=O)N1CCN(c2ccccc2)CC1 | 14.5 |
| CCCCCc1ccc(/C(C)=N/Nc2cc(-n3cc(C)cn3)ncn2)cc1 | -15.5 |
| Cc1cnn(-c2cc(N/N=C/c3ccc(F)cc3)ncn2)c1 | -7.7 |
| Cc1sc(NC(=O)C2CC2c2ccccc2)nc1-c1ccccc1 (configuration not stated) | 5.2 |
| Cc1nnc(C)n1/N=C/c1ccccc1Br | 11.6 |
| CS(=O)(=O)Nc1nnc(SCC(=O)Nc2cccc([N+](=O)[O-])c2)s1 | 4.7 |
| CC(C)N=CC1=C(O)CC(c2ccccc2)CC1=O (configuration not stated) | -4.5 |
| CC(C)(C)OC(=O)COc1cc2oc(=O)cc(-c3ccccc3)c2cc1Cl | 10.5 |
| CCCN1C(=O)c2ccccc2NC1c1ccc(Br)cc1 (configuration not stated) | 7.8 |
| Cc1ccc(-c2ccc(C)cc2N)c(N)c1 | -3.3 |
| COc1ccccc1CC(=O)Nc1cccc(F)c1 | 5.8 |
| CN=C(Nc1ccc(F)cc1)SC1CC(=O)N(c2ccccc2F)C1=O (configuration not stated) | -0.6 |
| Cc1ccc2oc(-c3ccc(NC(=O)c4cc5ccccc5o4)cc3O)nc2c1 | -9.6 |
| NNC(=O)CN1C(c2cccc(Cl)c2)=Nc2ccc(Br)cc2C1c1ccccc1 (configuration not stated) | 11.2 |

| Compound | displacement [%] |
| --- | --- |
| COc1ccc(N2C(=O)NC(=O)/C(=C\c3ccc(OCc4ccc(C(=O)O)cc4)c(OC)c3)C2=O)cc1 | -11.7 |
| O=C(Nc1cccc2nsnc12)c1ccc([N+](=O)[O-])cc1 | 17.9 |
| CCN(CC)CCNC(=O)c1ccc(Cl)c(Cl)c1 | -5.2 |
| Cc1cc(OCC(=O)N(C)Cc2ccccc2)ccc1Cl | -1.7 |
| COc1ccc(-c2nc3cc(NC(=O)c4cc5ccccc5o4)ccc3o2)cc1Cl | 7.5 |
| COc1ccc(-n2c(=S)[nH]c3sc4c(c3c2=O)CCC(C(C)(C)C)C4)cc1 (configuration not stated) | -8.9 |
| O=C(Cc1ccccc1[N+](=O)[O-])N1CCN(c2cccc(Cl)c2)CC1 | 3.9 |
| COc1cc(-c2ccc(NC(=O)c3ccc(C)cc3)c(OC)c2)ccc1NC(=O)c1ccc(C)cc1 | 8.9 |
| COC(=O)c1ccc2c(c1O)C(=O)c1ccccc1C2=O | 39.8 |
| CCOC(=O)C(Cc1ccc(NC(=O)/C(=C/c2ccc(OC(C)=O)cc2)NC(C)=O)cc1)N1C(=O)c2ccccc2C1=O (configuration not stated) | 2.5 |
| COc1cc2c(cc1NC(=O)c1cccc(I)c1)oc1ccccc12 | 8.3 |
| CCC(=O)Nc1nc2ccccc2n1CCCN(C)C | 2.4 |
| Cc1cc(NCCCO)n2c(nc3ccccc32)c1C#N | 160 |
| Clc1cccc(Nc2nc3c(s2)CCCC3)c1 | 3.9 |
| CCOc1ccc(C(=O)COC(=O)c2ccccc2[N+](=O)[O-])cc1 | -1.7 |
| O=C(Nc1ccc(Cl)cc1)c1cc(-c2cccs2)nc2ccccc12 | 15.7 |
| COc1ccc(CN2CCN(Cc3ccco3)CC2)c(OC)c1 | -5.2 |
| O=C(NCCCNc1ccc([N+](=O)[O-])cc1)c1ccc(Cl)cc1Cl | 16 |
| Cc1ccc(O)c(N2C(=O)c3ccc(Oc4ccc([N+](=O)[O-])cc4)cc3C2=O)c1 | -10.9 |
| CC1=C/C(=N/OS(=O)(=O)c2ccc(C)cc2)C=CC1=O | 21.6 |
| Cc1ccc(OCCn2ccnc2)cc1 | 7.5 |
| CCCc1cc(=O)oc2cc(OCC(=O)N(C)C)ccc12 | 10.9 |
| COC(=O)C(=O)/C=C(/O)c1ccc(Br)cc1 | 0.3 |
| O=C(O)C12CC3CC(C(=O)O)(C1)CC(C(=O)O)(C3)C2 | -4.5 |
